# Data as given in paper PMC4336329 (PLoS ONE, 2015).
# Screen size: about 310,000 compounds; about 14,000 (4.5%) showed an effect of 50% or more. Effects have a minus sign here. The list shows a part of the results.
# Molecular target: human ether-à-go-go-related gene (hERG) potassium channel (human, UniProt Q12809)
# Assay: primary screen, population patch clamp on CHO cells stably expressing hERG
# 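Further: peak tail current of the secondary pulse compared with the same well before compound.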
# Chain of human ether-à-go-go-related gene (hERG) potassium channel (Q12809 whole entry, looked up): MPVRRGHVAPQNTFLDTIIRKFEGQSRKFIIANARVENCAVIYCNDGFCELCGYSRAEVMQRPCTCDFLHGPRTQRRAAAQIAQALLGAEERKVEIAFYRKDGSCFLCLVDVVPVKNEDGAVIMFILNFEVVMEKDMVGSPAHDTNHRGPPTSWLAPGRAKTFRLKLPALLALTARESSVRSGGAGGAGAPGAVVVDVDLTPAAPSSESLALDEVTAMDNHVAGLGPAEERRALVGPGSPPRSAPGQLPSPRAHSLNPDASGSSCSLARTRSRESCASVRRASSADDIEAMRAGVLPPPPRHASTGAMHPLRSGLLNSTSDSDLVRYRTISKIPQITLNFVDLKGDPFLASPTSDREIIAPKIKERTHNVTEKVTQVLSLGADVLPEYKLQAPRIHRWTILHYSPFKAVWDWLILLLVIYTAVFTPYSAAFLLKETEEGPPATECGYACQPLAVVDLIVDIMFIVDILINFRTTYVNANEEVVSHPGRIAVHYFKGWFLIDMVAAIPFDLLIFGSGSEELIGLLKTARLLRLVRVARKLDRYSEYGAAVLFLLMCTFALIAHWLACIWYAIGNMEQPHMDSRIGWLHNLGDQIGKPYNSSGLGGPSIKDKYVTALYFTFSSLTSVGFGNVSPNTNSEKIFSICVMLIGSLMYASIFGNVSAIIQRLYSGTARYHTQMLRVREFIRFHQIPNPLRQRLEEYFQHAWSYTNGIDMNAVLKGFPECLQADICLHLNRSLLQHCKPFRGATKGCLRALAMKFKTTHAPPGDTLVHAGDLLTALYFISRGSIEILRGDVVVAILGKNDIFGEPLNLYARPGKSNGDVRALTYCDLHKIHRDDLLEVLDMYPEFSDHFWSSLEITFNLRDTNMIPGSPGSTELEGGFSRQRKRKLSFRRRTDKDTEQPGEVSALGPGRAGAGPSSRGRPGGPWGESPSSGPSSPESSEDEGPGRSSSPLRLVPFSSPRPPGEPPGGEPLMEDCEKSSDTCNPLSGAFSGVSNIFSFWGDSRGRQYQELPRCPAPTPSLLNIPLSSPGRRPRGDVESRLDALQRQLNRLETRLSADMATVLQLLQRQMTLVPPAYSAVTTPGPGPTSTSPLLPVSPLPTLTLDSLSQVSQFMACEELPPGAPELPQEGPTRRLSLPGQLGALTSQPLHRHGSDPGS
row,SMILES,"hERG current change (%, negative = inhibition) at 10uM [%]"
1,COc1cccc(CNC(=O)N2CCN(c3ccccc3C)CC2)c1,-5.7
2,NC(=S)NNC(=O)C12CC3CC(CC(C3)C1)C2,-2.16
3,COc1ccc(CNC(=O)[C@@H]2CC=C[C@@H]3CCN(C4CCCCC4)C(=O)[C@@H]32)cc1,-10.3
4,CC(C)C[C@H]1CN=C(N(C)C)N1CCCCc1ccccc1,-64.7
5,COc1ccc(-c2nn(-c3ccccc3)cc2/C=C2/SC(=S)N(CCCC(=O)O)C2=O)c(C)c1,26
6,COc1cc(N/C=C(\C(C)=O)c2ccccc2)cc(OC)c1,-8.39
7,COc1ccc(OCCC(=O)OCC(=O)c2ccc[nH]2)cc1,13.8
8,Cc1ccc(S(=O)(=O)Nc2cccc(C(=O)N3CCOCC3)c2)cc1,20.7
9,CCNC(=S)Nc1ccc(Cl)c([N+](=O)[O-])c1,-11.7
10,Cc1ccc2nc(C)cc(SCC(=O)N/N=C/c3ccco3)c2c1,6.06
11,Cc1ccc2nc3c(cc(C(=O)NCCN4CCOCC4)c(=N)n3CCCN3CCOCC3)c(=O)n2c1,-7.16
12,CC(C)(C)NC(=O)COC(=O)c1ccc(S(=O)(=O)N2CCCC2)cc1,-7.52
13,O=C(CSc1nc2[nH]ncc2c(=O)[nH]1)N1CCCCC1,16
14,Cc1ccc2oc(-c3cccc(NC(=O)Cn4cnc5c(=O)n(C)c(=O)n(C)c54)c3)nc2c1,9.16
15,CC(=O)Nc1c2c(nn1-c1ccccc1C)CS(=O)C2 (stereo not drawn),18.7
16,Cc1noc(C)c1S(=O)(=O)N1CCC(C(=O)O)CC1,-3.88
17,O=C(COC(=O)c1ccc(F)cc1)NCCc1ccc(F)cc1,4.42
18,Cc1ccc(-c2nnc(CSc3nnc(COc4ccccc4)n3-c3ccccc3)o2)cc1,4.4
19,CN=Cc1cc(-c2ccccc2)sc1O,8.05
20,CC1CCc2[nH]c3ccc(C(=O)N4CCCC(C(F)(F)F)C4)cc3c2C1 (stereo not drawn),12.2
21,Cc1ccc(S(=O)(=O)N/N=C/c2cccc(OC3CSC3)c2)cc1,-9.36
22,N#CC1=C(N)SC(N)=C(C#N)C1c1ccoc1,7.8

row,SMILES,"hERG current change (%, negative = inhibition) at 10uM [%]"
1,CCC1CCCCN1CCCNC(=O)CNC(=O)c1nn(-c2ccc(OC)c(Cl)c2)c(=O)c2ccccc12 (stereo not drawn),-39.4
2,O=[N+]([O-])c1ccc(Cl)c(C2Nc3cccc4cccc(c34)N2)c1,8.32
3,O=C(O)/C=C/C(=O)c1ccc(O)cc1,2.05
4,O=C(Nc1ccc(C(=O)N2CCCCC2)cc1)Nc1cccc(Cl)c1,16
5,CCN(CC)C(=O)Cn1cc(S(=O)(=O)CC(=O)N2CC(C)OC(C)C2)c2ccccc21 (stereo not drawn),-1.49
6,CCc1nn(CC(=O)NCCCN2CCOCC2)c(=O)c2cc3sccc3n12,16.2
7,O=C(c1cc(S(=O)(=O)N2CCCC2)c(Cl)cc1Cl)N1CCCC1,-3.95
8,CCN(CCCNC(=O)CCNC(=O)Cn1cnc2ccccc2c1=O)c1cccc(C)c1,-8.63
9,Cc1cc(NC(=O)CSCC(=O)Nc2cc(C(F)(F)F)ccc2N2CCCC2)no1,13.7
10,CCOC(=O)N1CCN(C(=O)c2ccc3c(c2)N(Cc2ccc(C)cc2)CCS3)CC1,-20
11,N#Cc1c(N)n(-c2ccccc2)c(=O)c2cc([N+](=O)[O-])ccc12,16.9
12,Cc1nc2ccc(NC(=O)c3ccc(F)c(S(=O)(=O)N4CCOCC4)c3)cc2s1,2.39
13,O=C1C2C3CCC(C3)C2C(=O)N1c1ccc2ccccc2c1 (stereo not drawn),2.72
14,COc1ccc(C(CNS(=O)(=O)c2ccc(C)cc2)N2CCN(C)CC2)cc1 (stereo not drawn),-45.2
15,O=C(NNC(=O)c1ccccn1)c1cccc([N+](=O)[O-])c1,8.7
16,Cc1ccc(S(=O)(=O)N2CCCC2C(=O)NCc2ccccc2Cl)cc1 (stereo not drawn),-2.88
17,CCOC(=O)c1[nH]c2cc(OC)c(OC)cc2c1NC(=O)C(C)N1CCN(Cc2ccccc2)CC1 (stereo not drawn),-38.6
18,Cc1cc(Nc2ccc(F)c(F)c2)nc(-c2ccccc2O)n1,13.9
19,COCCn1c(Cc2ccccc2)nnc1SCC(=O)Nc1oc(C)c2c(C)n[nH]c(=O)c12,13.8
20,Fc1ccc(NC(=S)N2CCN(c3ccccn3)CC2)cc1Cl,10.7
21,O=C(CCCCCN1C(=O)c2ccccc2C1=O)NCc1ccccn1,14.5
22,COc1ccc(CCNCc2ccc(OCC(=O)N3CCCCC3)c(OC)c2)cc1OC.Cl,0.411

row,SMILES,"hERG current change (%, negative = inhibition) at 10uM [%]"
1,Cc1ccc(CNC(=O)C2CCCN(S(=O)(=O)c3cccc4nonc34)C2)cc1 (stereo not drawn),16.4
2,CCOC(=O)C1=C(C)Nc2ncnn2C1c1c[nH]c2ccccc12 (stereo not drawn),-6.28
3,CCOc1ccccc1N(CC(=O)Nc1ccc(C)cc1)S(C)(=O)=O,2.47
4,S=C(/N=c1/sccn1Cc1ccccc1)NC1CC1,9.15
5,Cc1ccc(CNC(=O)C2CCC(=O)N(CCc3ccccn3)C2)s1 (stereo not drawn),2.53
6,C/C=C\C=C/C(=O)Nc1cccc(C2=NOC3(C2)C[C@@H](C(N)=O)N(C(=O)/C=C/CC)C3)c1 (stereo partly drawn),-9.11
7,COC(=O)c1sc(S(=O)(=O)N2CCN(c3ccc(OC)cc3)CC2)c(C(=O)OC)c1C,-25
8,COc1ccc(S(=O)(=O)NCc2ccco2)cc1C(=O)N1CCCCC1,-7.43
9,Cc1nnc(SCCN2C(=O)c3ccccc3C2=O)[nH]c1=O,2.37
10,Cn1c(SCC(=O)Nc2ccc(N3CCOCC3)c(Cl)c2)nnc1C(O)c1ccccc1 (stereo not drawn),-4.85
11,CCOC(=O)CSc1nnc(Cc2ccccc2)n1-c1ccc(C)cc1,-37.4
12,CCc1ccc(OCC(=O)Nc2ccc3oc(=O)ccc3c2)cc1,13.1
13,CCc1cccc(N(C(=O)c2csnn2)C(C(=O)NC(C)(C)C)c2ccccn2)c1 (stereo not drawn),1.65
14,CCCCNc1nc2ccccc2nc1NS(=O)(=O)c1cccs1,6.48
15,CCOc1ccccc1C(=O)Nc1ccc(S(=O)(=O)Nc2nccc(C)n2)cc1,2.82
16,C#Cc1ccc(C(=O)NCc2ccc(N3CCCC3=O)cc2)cc1,20.2
17,CCCc1cc(=O)oc2cc(OCC(=O)N3C[C@H]4C[C@@H](C3)c3cccc(=O)n3C4)ccc12,5.55
18,Cc1nnc(Sc2nc3ccccc3o2)c2ccccc12,5.85
19,COc1ccc(CCNC(=O)C2CCC(=O)N(C3CCCCCC3)C2)cc1 (stereo not drawn),8.9
20,O=C(Cn1c(=O)oc2ccccc21)Nc1ccccc1Cl,14.1
21,CC(C)(C)C(=O)NC1=NN(c2c(Cl)cc(Cl)cc2Cl)C(=O)C1,21.9
22,O=S(=O)(c1ccc2nc(SCc3ccc(Cl)cc3)[nH]c2c1)N1CCOCC1,-24

row,SMILES,"hERG current change (%, negative = inhibition) at 10uM [%]"
1,CN(CC(=O)NCCCN1CCOCC1)S(=O)(=O)c1cc(Cl)ccc1Cl,-14.8
2,CC(CCc1ccccc1)NC(=O)CN(C)Cc1ccccc1F (stereo not drawn),-36.4
3,C=CCNC(=S)Nc1ccc(Cl)c(S(=O)(=O)N2CCOCC2)c1,13.2
4,C=CCC1(O)C(=O)N2C(=C1C(=O)OCC)c1ccc3ccccc3c1CC2(C)C (stereo not drawn),2.23
5,Cc1c(-n2c(-c3ccccc3)nc3ccccc3c2=O)c(=O)n(-c2ccccc2)n1C,0.536
6,O=C(Cc1ccccc1)NC1CCSc2ccccc21 (stereo not drawn),12
7,COc1cc(-c2n[nH]c(=S)n2-c2ccc(C)cc2)cc(OC)c1OC,18.3
8,O=C(N/N=C/c1c(O)n(-c2ccc(Cl)cn2)c(=O)c2ccccc12)c1ccncc1,23.2
9,O=C(NCCCc1ccncc1)C1CCC(=O)N(Cc2cccc(F)c2)C1 (stereo not drawn),-14.5
10,Cl.O=C(NCCCN1CCOCC1)c1ccc(CSc2ccc(Cl)cc2)cc1,-59.2
11,CC1CCc2c(sc3ncn(CC(=O)N=Nc4c(O)[nH]c5ccccc45)c(=O)c23)C1 (stereo not drawn),-29.8
12,Clc1ccc2c(c1)C(C1=NCCN1)c1ccccc1CS2.O=C(O)/C=C\C(=O)O (stereo not drawn),-8.02
13,Br.CC(C)(C)c1ccc(CN2C3=NCCCN3c3ccccc32)cc1,-77.6
14,O=C(Nc1cnn(Cc2ccc(Cl)c(Cl)c2)c1)c1nc2ncccn2n1,-5.27
15,COc1ccc(-c2ccc(CCC(=O)O)n2CC(=O)Nc2ccccc2C)cc1,17.8
16,O=C(NC1CCCCC1)C1CCCN(S(=O)(=O)c2ccc(Br)s2)C1 (stereo not drawn),17.1
17,CN1CCN(c2ccccc2NC(=O)Cc2cn(C)c3ccccc23)CC1,-59.5
18,CCN(CC)c1ccc(/C=C(/C#N)C(=O)NCc2ccccc2)o1,2.6
19,CCN=C1SC(CC(=O)Nc2ccc(N3CCOCC3)cc2)C(=O)N1CC (stereo not drawn),12.2
20,COc1ccc(-c2ccc(CCC(=O)O)n2-c2ccccc2OC)cc1,0.474
21,O=C(CN1CCCCC1)n1c2ccccc2c2ccccc21,-16.3
